Measurements as given in the supplement of paper PMC10126150.
Sequences with one replicate were seen in a single cluster, so their values are uncertain.

Test system: ATP
Assay: switch fluorescence ratio, 500 uM ATP over buffer (Cy3 cluster intensity, sum of 5 cycles each) (fold (ratio)); higher = stronger signal-on switching upon ATP binding; sequences stand for … in TCGTCGGCAGCGTCAGATGTGTATAAGAGACAGTTTTTTTTTTTTTTTTTTTTTTTTT…TC
Details: aptamer strand: ATP DNA aptamer (quencher-CACCTGGGGGAGTATTGCGGAGGAAGG + anchor), 100 nM annealed; ATP concentration: 500 uM; one replicate
Summary of the method: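 Cy3-labelled switching-strand clusters on a modified Illumina MiSeq flow-cell were annealed to 100 nM quencher-labelled ATP aptamer, imaged in selection buffer, then imaged after 15 min with 500 uM ATP at 22 °C. Five buffer/ATP cycles ran, with NaOH stripping and re-annealing between them. The fluorescence ratio is summed target-cycle over summed buffer-cycle Cy3 intensity per cluster, averaged per switch-domain sequence. Clusters outside 100-1000 RFU were excluded.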
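Note: ATP exposure 15 min at 22 °C before imaging.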

Row | Sequence | switch fluorescence ratio
1 | GGAATTCGTG | 0.986
2 | ATTTCGAAGA | 0.952
3 | CACGCTGGTA | 0.992
4 | TCCTTAATCT | 1.01
5 | ACTTTCGTTG | 0.973
6 | GGTGACCTCT | 1.01
7 | TCTTCAGCTT | 1.14
8 | TTCAAACCGA | 1.18
9 | GTGGCGGGG | 1.03
10 | TTTTACATGT | 1.01
11 | TGAGTTTTCT | 0.988
12 | TAGTTTCATA | 1
13 | CTTTTCGGTT | 0.983
14 | TAAATGCAGG | 1.05
15 | AGAGTGTAGA | 1.03
16 | GCTGACACGC | 1.11
17 | TCACGATTTT | 1.02
18 | TGTCGGTTTG | 0.979
19 | TACCGCCAAT | 2.28
20 | TCTATGACGT | 0.986
21 | GGACCTTGCC | 1.8
22 | CATCGACGGC | 1.22
23 | TCTCCATCTA | 1.03
24 | TATTTAATAC | 1.14
25 | ACGTTCCGAA | 1.38
26 | CTTAATGTGG | 0.969

Row | Sequence | switch fluorescence ratio
27 | GTTTGTGTCT | 0.914
28 | CAAATTGTAA | 1.01
29 | GACCGTCCTA | 1.11
30 | GGCAAAGATG | 0.972
31 | CAGCTGATTT | 1.04
32 | AAGTAATGGC | 1.03
33 | ACGTAACTT | 1.28
34 | AGCCTTGTAG | 0.96
35 | ACCGGGAATG | 0.996
36 | TGCGTCTGCC | 1
37 | GCATAAGCTT | 1.03
38 | TCATCAGTTG | 0.983
39 | GCTACACACA | 1.3
40 | CAGAAACCGA | 1.94
41 | GTCTCAGCAT | 1.5
42 | CTTTGAGGA | 1.01
43 | AGAGCGAGAA | 1.04
44 | TCACTAGTCC | 1.61
45 | GTAATTATGA | 0.978
46 | ACTTCGCGAA | 2.17
47 | ATGGATTCCA | 0.989
48 | AGAAGGTAGC | 0.968
49 | TGAGGCTTTT | 0.989
50 | CTTCCCGGTG | 5.44
51 | CCAAGGTAGC | 1.1
52 | AAACTTATCA | 1.01

Row | Sequence | switch fluorescence ratio
53 | ATACTGAGCG | 1.03
54 | GGTGCAATTA | 1.17
55 | TACTGGGTG | 1.12
56 | CCGTTAGGG | 1.04
57 | CGCTTCCCA | 1.15
58 | ATATATATGT | 1.04
59 | GCTATTGAGG | 0.994
60 | AATGCGTAAA | 0.97
61 | CGCAGGGACC | 1.13
62 | GCCGGGAAAG | 0.993
63 | TCAATCAAGC | 1.03
64 | ACTTGGAATT | 1.07
65 | TAGGAACACA | 1.02
66 | ATGGCCGATT | 0.975
67 | ATTATGATCT | 0.985
68 | ACGCTACTAC | 4.17
69 | TTCGGTGGTG | 1.22
70 | CGGCGGCTTT | 0.969
71 | GGTGATACG | 0.993
72 | CTTGGTAGTA | 0.989
73 | GTAGTACTTT | 1.02
74 | CTGTACTTTG | 1.07
75 | GGATTCCTCA | 1
76 | AAACACTCTC | 1.03
77 | AATGCGAGGG | 0.993
78 | GAGCTTACCG | 1.01

Row | Sequence | switch fluorescence ratio
79 | GGAATTATAG | 1.02
80 | GGGCTCAGGT | 1.1
81 | CTGGGGTATT | 0.998
82 | GGTTTTTCC | 0.975
83 | ATCGGCGTGC | 0.972
84 | ACGGGCAGTC | 1.04
85 | AGACGCTCAT | 1.09
86 | GTGCCTGTT | 1
87 | GTATTCAGCA | 0.988
88 | ATGGTGTCTG | 0.983
89 | AACTACGGCG | 1.05
90 | TTTCACTTTC | 1.1
91 | AACTGTTCGG | 1.01
92 | TGGCTGGCGA | 1.04
93 | CGTTACGAA | 1.07
94 | TCTGTTTGG | 1.01
95 | TGTGACGTTA | 1.04
96 | GGATCAGAGG | 0.975
97 | TATGCGGTC | 0.951
98 | TTTCACAAAT | 1
99 | GAGTCAGCTG | 0.93
100 | AGCACACCTA | 1.08
101 | TATATGAGTC | 0.962
102 | CTAAGAAGC | 0.952
103 | ACATGCACAT | 1.17
104 | TTGGGTGAAA | 1.1

Row | Sequence | switch fluorescence ratio
105 | CCGATCTAAG | 1.07
106 | AGGAGTATGT | 0.954
107 | CCATTTTAGA | 1.01
108 | CGCAAGTCAT | 1.04
109 | ACATTGTCTC | 0.974
110 | ACCTAGTTTC | 1.02
111 | AGTTGTATCA | 0.944
112 | CATTACAACG | 1.03
113 | AGAAGCACTG | 1.16
114 | CAGAGCTAAG | 1.1
115 | ATAGCCAGAA | 0.963
116 | AGTGGTATTA | 0.986
117 | CGGGGGAATC | 1.02
118 | ATGGGGCTCG | 0.98
119 | ATGCTCAATC | 1.07
120 | TAGGATAGTA | 0.991
121 | CCTAGATTTA | 0.977
122 | AACGCCGGGC | 1.04
123 | GTGTCATTAT | 1.02
124 | ACGGGGATAC | 2.28
125 | GCTCCGGTAT | 4.64
126 | GCCTGCGCCC | 1.3
127 | TTAATGGAGA | 0.985
128 | ACATCACGGT | 1.48
129 | GTATCGCTTT | 0.987
130 | TTGTAGCCC | 2.09

Row | Sequence | switch fluorescence ratio
131 | GATTGGAAAT | 1.05
132 | CTGTTGTGGA | 1.04
133 | GCACCGGGG | 1.03
134 | CACCGAAGTT | 1
135 | CGATCCGCAG | 6.61
136 | ACGATTGCCA | 1.03
137 | ACACTTCTGC | 1.05
138 | TTGATGCGAA | 1
139 | ATTGTGAAGG | 0.982
140 | TCTGAAAC | 0.996
141 | CATAATAGGG | 1.01
142 | GCTAAGTGTC | 0.956
143 | GTGTGCGTAA | 1.03
144 | CAATATATGA | 1.02
145 | ACTTGTGTGT | 0.947
146 | ATGTGGTTCG | 0.998
147 | CCCACGTAT | 1.33
148 | AAAATAGCTA | 1.03
149 | GCGACAATTA | 1.13
150 | AAAGGCCAAC | 1.13
151 | TTGCGTTAT | 0.991
152 | TGTGCCTATG | 0.973
153 | ATGGACTACG | 1
